The target of assay [1] is T1, recombinant mouse CD96-his (788806; Biolegend) (mouse, UniProt Q3U0X8 22-536, limits assumed).
T1 construct: Bought protein, captured on an anti-histidine chip for SPR; also called mCD96-his; mCD96; not shown: His tag
T1 sequence (looked up): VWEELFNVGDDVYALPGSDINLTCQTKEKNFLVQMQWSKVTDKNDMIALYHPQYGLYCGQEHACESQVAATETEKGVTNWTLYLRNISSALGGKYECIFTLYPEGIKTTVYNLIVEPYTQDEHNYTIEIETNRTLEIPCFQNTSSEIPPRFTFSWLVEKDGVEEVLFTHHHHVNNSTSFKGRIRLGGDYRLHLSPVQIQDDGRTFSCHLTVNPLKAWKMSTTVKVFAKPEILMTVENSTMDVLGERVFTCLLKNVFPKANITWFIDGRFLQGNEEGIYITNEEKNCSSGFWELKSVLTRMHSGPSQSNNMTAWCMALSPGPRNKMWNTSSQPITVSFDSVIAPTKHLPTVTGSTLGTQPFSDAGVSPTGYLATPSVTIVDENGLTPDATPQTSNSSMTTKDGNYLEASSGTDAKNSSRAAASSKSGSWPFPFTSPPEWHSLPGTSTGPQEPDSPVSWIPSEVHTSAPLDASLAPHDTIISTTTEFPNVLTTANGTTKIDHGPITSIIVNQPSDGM
Nature of the assay: SPR (Biacore T200), single-cycle kinetics, mCD96-his captured by anti-His, 1:1 Langmuir fit. From the text:
(§1) Surface Plasmon Resonance: Binding kinetics of vdPVR-Fc, mutant vdPVR-Fc and PVR-Fc (786608; Biolegend) proteins to mTIGIT-Fc-his (771808; Biolegend), mCD226-his (50232-M08H; SinoBiological) and mCD96-his (788806; Biolegend) were derived from single cycle kinetic analyses by surface plasmon resonance (SPR) using a Biacore T200 (Cytiva). Briefly, anti-histidine antibodies were immobilized on a CM5 chip (29149604; Cytiva) using the His capture kit (28995056; Cytiva) following manufacturer's protocol.
A general note: SPR reads the build-up and loss of mass on a sensor chip optically.

In assay [2] the target is T2, recombinant mouse CD226-his (50232-M08H; SinoBiological) (mouse, UniProt Q8K4F0 19-254).
T2 construct: Bought protein, captured on an anti-histidine chip for SPR; also called mCD226-his; mCD226; not shown: His tag
T2 sequence (looked up): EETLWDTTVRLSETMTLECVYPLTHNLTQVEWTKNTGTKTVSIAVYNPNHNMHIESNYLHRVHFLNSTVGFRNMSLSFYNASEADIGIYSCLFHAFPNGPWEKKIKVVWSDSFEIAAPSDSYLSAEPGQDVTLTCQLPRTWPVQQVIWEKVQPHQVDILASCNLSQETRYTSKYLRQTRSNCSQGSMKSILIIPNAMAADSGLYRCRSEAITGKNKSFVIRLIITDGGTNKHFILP
The assay can be described thus: SPR (Biacore T200), single-cycle kinetics, mCD226-his captured by anti-His, 1:1 Langmuir fit.
Description: as §1

Assay [3] concerns the target T3, recombinant mouse TIGIT-Fc-his (771808; Biolegend) (mouse, UniProt P86176 29-148, limits assumed).
T3 construct: Bought protein, captured on an anti-histidine chip for SPR; also called mTIGIT-Fc-his; mTIGIT; not shown: Fc part; His tag
T3 sequence (looked up): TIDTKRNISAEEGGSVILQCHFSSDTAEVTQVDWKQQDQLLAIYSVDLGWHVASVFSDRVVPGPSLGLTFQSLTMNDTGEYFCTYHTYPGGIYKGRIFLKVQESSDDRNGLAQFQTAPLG
The assay can be described thus: SPR (Biacore T200), single-cycle kinetics, mTIGIT-Fc-his captured by anti-His, 1:1 Langmuir fit.
Description: as §1

Assay [4] deals with T4, mouse TIGIT on stimulated primary murine CD4+ and CD8+ T-cells (mouse, UniProt P86176 29-249).
T4 construct: whole, on cells; The cells are primary T-cells that also carry CD226; also called TIGIT on murine T cells
T4 sequence (looked up): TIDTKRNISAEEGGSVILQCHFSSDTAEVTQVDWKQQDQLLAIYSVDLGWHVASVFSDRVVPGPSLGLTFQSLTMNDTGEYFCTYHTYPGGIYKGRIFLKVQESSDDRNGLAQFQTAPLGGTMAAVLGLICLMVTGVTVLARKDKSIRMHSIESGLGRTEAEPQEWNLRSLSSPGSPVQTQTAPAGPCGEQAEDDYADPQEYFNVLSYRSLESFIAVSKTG
The assay can be described thus: flow cytometry on ConA-stimulated mouse splenocytes gated on CD4+ and CD8+ T-cells, detected with PE anti-human IgG Fc [bottom panels]. As to the method: Cell binding to mouse T cells: Binding of vdPVR-Fc and mutant vdPVR-Fc to primary murine CD4⁺ and CD8⁺ T-cells were assessed using flow cytometry. Mouse splenocytes were treated with red blood cell lysis buffer and cultured with about 2 μg/mL Concanavalin A (C5275; MilliporeSigma) for 2 days. Murine splenocytes were harvested, had their Fc receptors blocked with Mouse TruStain FcX (101319; BioLegend) and were incubated with about 2.5 μg of vdPVR-Fc or mutant vdPVR-Fc for about 1 h at about 4° C. Cells were then washed and PE anti-human IgG Fc (409304; Biolegend) was added to detect vdPVR-Fc and mutant PVR-Fc binding. Additionally, cells were simultaneously stained with a cocktail of Alexa Flour 700 anti-CD3 (100216; BioLegend), APC anti-CD8 (100711; BioLegend), and PE/Cy7 anti-CD4 (100422;BioLegend) for about 30 minutes at about 4° C. Cells were subsequently washed and analysed by flow cytometry (BD LSR II, Becton Dickinson; Center for Scanning Microscopy and Flow Cytometry; Sunnybrook Research Institute) with DAPI (D1306; Thermo Fisher Scientific) used to exclude dead cells. To confirm the specificity of vdPVR-Fc to TIGIT, competition cell binding experiments were performed with mouse anti-TIGIT antibody (clone 1B4; Absolute Antibody). Mouse splenocytes were incubated with vdPVR-Fc as described above. […]

B1: vdPVR-Fc (murine IgV-domain PVR-Fc fusion construct) (Fc fusion)
chain: DIRVLVPYNSTGVLGGSTTLHCSLTSNENVTITQITWMKKDSGGSHALVAVFHPKKGPNIKEPERVKFLAAQQDLRNASLAISNLSVEDEGIYECQIATFPRGSRSTNAWLKVQARPKNIEGRM[left out - human IgG1 Fc and a few adjoining residues]
notes: Secreted from Expi293F cells, purified on protein A, runs as a dimer (about 94 kDa); also called IgV PVR-Fc; truncated IgV-Fc construct
The term Kd denotes the constant that tells how readily two partners part at equilibrium. For orientation: koff means the first-order rate constant of dissociation. The term kon denotes the second-order rate constant of association. Regarding B1, in assay [1], the Kd worked out at 1.72 nM. For the same molecule, in assay [2], the dissociation constant Kd is 0.69 nM, the koff came to 0.00184 s⁻¹ and the kon was found to be 2.67e+06 M⁻¹ s⁻¹. In assay [3], the Kd was 2.25 nM and the kon stood at 2.92e+07 M⁻¹ s⁻¹.

B2: mutant vdPVR-Fc (Q63R and F128R in the PVR IgV ECD) (Fc fusion)
chain: DIRVLVPYNSTGVLGGSTTLHCSLTSNENVTITRITWMKKDSGGSHALVAVFHPKKGPNIKEPERVKFLAAQQDLRNASLAISNLSVEDEGIYECQIATRPRGSRSTNAWLKVQARPKNIEGRM[left out - human IgG1 Fc and a few adjoining residues]
notes: Made like vdPVR-Fc except for the two point mutations; Negative control; also called mutant PVR-Fc
Take B2: the binding result in assay [4] is given as “no binding”.

The record behind these values is patent publication US20240309052A1 (SUNNYBROOK RESEARCH INSTITUTE, published 2024).
